Reference: the RNAGym collection of RNA variant scans (doi:10.7554/elife.90254)
Read counts are not given, so values of variants with three or more changes are uncertain.

B1: LINE1-mini (parent)
chain: GGCAGAGCUCAACACAGCGUGGCAAAGUGGCUGUGGCUAGACUGCC

Variants of: B1
Assay: self-cleavage, relative activity (ratio to wild type); higher = more cleavage; in vitro, sequencing; the parent is a self-cleaving ribozyme

For GGCAGCGCUCGACACAGCGUGGCAAAGUGGCUGUGUCUAGACUGCG [A6C A11G G36U C46G], which self-cleavage is on record?
The self-cleavage was 0.05.

For GGCAUAGCUCAACACAGCGUGGCAAAGCGGCCGUGGCUAGACUGCC [G5U U28C U32C], which self-cleavage is on record?
The self-cleavage was 0.01.

With GGCAUAGCUCAACACAGCGUGGCAAAGCGGCGGUGGCUAGACUGCC [G5U U28C U32G] as the variant, how does the self-cleavage read?
The self-cleavage was 0.05.

Which self-cleavage does the source give for GGCAGCGCUCGACACCGCGUGGCAAAUUGGCUGUGGCUAGACUGCC [A6C A11G A16C G27U] here?
Its self-cleavage is 0.03.

For GGCAGCGCUCACCACAGCGUGGCAAAGUAGCUGUGGCUAGAUUGCC [A6C A12C G29A C42U], which self-cleavage is on record?
The self-cleavage was 0.

Which self-cleavage does the source give for GGCAGCGCUCAACACUGCGUGGCAACGGGGCCGUGGCUAGACUGCC [A6C A16U A26C U28G U32C] here?
The self-cleavage was 0.01.

For GGCAGCGCUCAACCCAGCGCGACAUAGUGGCUGUGGCUAGACCGCC [A6C A14C U20C G22A A25U U43C], which self-cleavage is on record?
Its self-cleavage is 0.02.

With GGCAGCGAGCAACACAGCGUGACAAAGUGGAUGUGGGUAGAUUGCC [A6C C8A U9G G22A C31A C37G C42U] as the variant, how does the self-cleavage read?
The self-cleavage was 0.07.

Which self-cleavage does the source give for GGCAGCGCUCAACACUGCGUGGCAAAGUGGCUGUGGAUAAUCUGCC [A6C A16U C37A G40A A41U] here?
Its self-cleavage is 0.01.

Which self-cleavage does the source give for GGCAGCGCUCAACACAGCGUGGCAAAGUGGCUGUGGCUUGACUGCA [A6C A39U C46A] here?
Its self-cleavage is 0.11.

With GGCAGCGCUCAACACAGCGUGGCACAGUGGCUGUGGCUAGACUUAG [A6C A25C G44U C45A C46G] as the variant, how does the self-cleavage read?
The self-cleavage was 0.07.

With GGCAGCGCUCAACACAGCGUGGCAUAGUGGCUGUGGCUAUACUGCC [A6C A25U G40U] as the variant, how does the self-cleavage read?
Its self-cleavage is 0.3.

Which self-cleavage does the source give for GGCAGCGCUCAACACCGCGUGGCAAAGUGGCUAUGGCUAGACUGGC [A6C A16C G33A C45G] here?
Its self-cleavage is 0.

Which self-cleavage does the source give for GGCAGCGAUCAACACAGCGUGGCAAAGUGGAUGUGGCUAGACUGCC [A6C C8A C31A] here?
The self-cleavage was 0.26.

For GGCAGCGCUCAACACAGCGUGGCAGAGUGGCUGUGGCUAGACUAUC [A6C A25G G44A C45U], which self-cleavage is on record?
Its self-cleavage is 0.03.

Which self-cleavage does the source give for GGCAGCGAUCCACACAGCGUGGUAAAGUGGCUGUGGCUAGAAAGCC [A6C C8A A11C C23U C42A U43A] here?
The self-cleavage was 0.01.

Which self-cleavage does the source give for GGCAGCGCUCACAACGGCGUGGCAAAGUGGCUGUGGCUAGACUGCC [A6C A12C C13A A16G] here?
The self-cleavage was 0.03.

For GGCAGCGCUCAACUCAGCUUGGCAAAGUGGCUGUGGCUAGACUGCC [A6C A14U G19U], which self-cleavage is on record?
Its self-cleavage is 0.44.

With GGCAGCGCUCAACACAGCGUGGCGAAGUGGCUGUAGCUAGACUGCC [A6C A24G G35A] as the variant, how does the self-cleavage read?
The self-cleavage was 0.07.

For GGCAUAGCUCAACACAGCGGGGCAAAGUGGCUGUGGCUAGACCGCC [G5U U20G U43C], which self-cleavage is on record?
Its self-cleavage is 0.04.

Which self-cleavage does the source give for GGCAGCGCUCCACACUGCGUGGCAAAGUAGCUGUGGCUAGACUGCC [A6C A11C A16U G29A] here?
The self-cleavage was 0.01.

With GGCAUAGCUCAACACAGCGGGGCAGAGUGGCUGUGGCUAGACUGCC [G5U U20G A25G] as the variant, how does the self-cleavage read?
The self-cleavage was 0.09.

Which self-cleavage does the source give for GGCAUAGCUCAACACAGCGUGGCAAAGUGGCGGUGGCUAUACUGCC [G5U U32G G40U] here?
The self-cleavage was 0.

Which self-cleavage does the source give for GGCAGCGGUCAACACAGCGCGGCAAAGUGGCUGUCGCUAGACUGCC [A6C C8G U20C G35C] here?
The self-cleavage was 0.

For GGCAUAGCUCAACACAGCGUGGCAAAGGGGCUGUGCCUAGACUGCC [G5U U28G G36C], which self-cleavage is on record?
The self-cleavage was 0.01.

For GGCAGCGGUCAACACAGCGUGGCAAAGUUGCUGUGGCUAGACUCCC [A6C C8G G29U G44C], which self-cleavage is on record?
Its self-cleavage is 0.02.

Which self-cleavage does the source give for GGCAGCGCUCAACACAGCGUGGCAUAGUGGCUGUGGCUUGACUGCC [A6C A25U A39U] here?
The self-cleavage was 0.3.

Which self-cleavage does the source give for GGCAGCGCUCAACACAGCGUGGCAAGGUGGCUGUCGCUAGACUGAC [A6C A26G G35C C45A] here?
The self-cleavage was 0.05.

Which self-cleavage does the source give for GGCAUAGCUCAACACAGCGUGGCAAAGAGGCUGUGGCAAGACUGCC [G5U U28A U38A] here?
Its self-cleavage is 0.03.

With GGCAGCGGUCAAAACAGCGUGGCAAAGUGGCCGUGGCUAUACUGCC [A6C C8G C13A U32C G40U] as the variant, how does the self-cleavage read?
The self-cleavage was 0.03.

With GGCAUAGCUCAACACAGCGUGGCAAAGGGGCUUUGGCUAGACUCGC [G5U U28G G33U G44C C45G] as the variant, how does the self-cleavage read?
The self-cleavage was 0.04.

For GGCAGCGGUCAACACAGCGUGGCAAAGUGGCUGUGGCUCGACUGCC [A6C C8G A39C], which self-cleavage is on record?
The self-cleavage was 0.06.

For GGCAGCGCUCAUCACAGCGCGGCAAAGUGGCUGUGGCUAGACUGCC [A6C A12U U20C], which self-cleavage is on record?
The self-cleavage was 0.24.

With GGCAGCGGUCAACACAGGGUGGCAAAGUGGCUGUGGCUAGACUGCC [A6C C8G C18G] as the variant, how does the self-cleavage read?
The self-cleavage was 0.02.

With GGCAGCGCUCAACACAGCGUGGCAACGUGGCUGUGGCUAGUAUGGC [A6C A26C A41U C42A C45G] as the variant, how does the self-cleavage read?
The self-cleavage was 0.

For GGCAGCGCUCCACAAAGCGUGGCAACGUGGCUGUGGCUAGACUGCC [A6C A11C C15A A26C], which self-cleavage is on record?
The self-cleavage was 0.01.

With GGCAUAGCUCAACACAGCGGGGCAAAGUGGCUGUGGCUAGACUGGC [G5U U20G C45G] as the variant, how does the self-cleavage read?
Its self-cleavage is 0.13.

For GGCAGCGCUCCACACAGCGUGGCAAAGUGGCUGUGGCUAAACUGCC [A6C A11C G40A], which self-cleavage is on record?
The self-cleavage was 0.05.

Which self-cleavage does the source give for GGCAGCGGUCAACACAGCGUGGCAAAGUGGCUGUGGCUUGAGUGCC [A6C C8G A39U C42G] here?
Its self-cleavage is 0.06.

For GGCAGCGCUCAGCUCAGCGUGGCAAAGUGGCUGUGGCUAGACUGCC [A6C A12G A14U], which self-cleavage is on record?
Its self-cleavage is 0.05.

With GGCAGCGCUCAACACAGCGUGGCAACGUGGCUUUGGCUAGACUGGC [A6C A26C G33U C45G] as the variant, how does the self-cleavage read?
The self-cleavage was 0.02.

With GGCAGCGCUCAACACUGCGUGGCAAAGUGGCUGCGGCUAGACUGCC [A6C A16U U34C] as the variant, how does the self-cleavage read?
Its self-cleavage is 0.02.

For GGCAUAGCUCAACACAGCGGGGCGUAGUGGCUGUGGCUAGACUGCC [G5U U20G A24G A25U], which self-cleavage is on record?
Its self-cleavage is 0.07.

Which self-cleavage does the source give for GGCAUAGCUCAACACAGCGUGGCAAAGUGGCAGUGGCCAGACUGCC [G5U U32A U38C] here?
Its self-cleavage is 0.07.

For GGCAGCGCUCAGCACAGAGUGGCAAAGUGGCUGUGGCUACACUGCC [A6C A12G C18A G40C], which self-cleavage is on record?
Its self-cleavage is 0.08.

With GGCAGCGCUCAACGCAGCCUGGCAAAGUGGCUGUGGCUAGACUGCC [A6C A14G G19C] as the variant, how does the self-cleavage read?
Its self-cleavage is 0.25.

With GGCAGCGCUCCACACAGCGAGGCAAACUGGCUGUGGCUAGACUGCC [A6C A11C U20A G27C] as the variant, how does the self-cleavage read?
The self-cleavage was 0.

With GGCAGCGCUCAACACAGCGUGGCAAUGUGUCUGUGGCUAGACUGCC [A6C A26U G30U] as the variant, how does the self-cleavage read?
The self-cleavage was 0.55.

With GGCAGCGCUCAACGCAGCGUGGCAAAGAGGCUGUGGCUAGACUGCG [A6C A14G U28A C46G] as the variant, how does the self-cleavage read?
Its self-cleavage is 0.23.

For GGCAUAGCUCAACACAGCGUGGCAAAGUGGCUGCGGCUCGACUUCC [G5U U34C A39C G44U], which self-cleavage is on record?
The self-cleavage was 0.01.

Which self-cleavage does the source give for GGCAGCGCUCAACACCGCGUGGCAAAGUGGCUGUUGCUAGACUGCC [A6C A16C G35U] here?
Its self-cleavage is 0.04.

Which self-cleavage does the source give for GGCAGCGGUCAACACAGCGUGGCAAAGUGGCUGUGGCUAGACUGCA [A6C C8G C46A] here?
The self-cleavage was 0.

With GGCAGCGGUCAACACAGCGUGGCAAAGUGGCUGCGGCUAGACUACC [A6C C8G U34C G44A] as the variant, how does the self-cleavage read?
The self-cleavage was 0.02.

With GGCAGCGCUCGACACAGCGUGGCAAAGUGGCUAUGGCAAGACUGCC [A6C A11G G33A U38A] as the variant, how does the self-cleavage read?
Its self-cleavage is 0.01.

Which self-cleavage does the source give for GGCAGCGCUCAACACAGCGUGGCAAAGUGGCUGUGGCUAGUCUGCG [A6C A41U C46G] here?
The self-cleavage was 0.07.

Which self-cleavage does the source give for GGCAGCGCUCAUCACUGCGUGGCAACGUGGCUGUGGCUAGACUGCC [A6C A12U A16U A26C] here?
Its self-cleavage is 0.05.
